# According to PubChem BioAssay AID1476 (National Center for Advancing Translational Sciences (NCATS), 2009):
# Out of some 200,000 compounds screened, about 4,500 (2.2%) were called active. Inconclusive results, whose numbers are uncertain, are shown with a selection of clear calls. The call rests on the fitted dose curve; in most records, active means well fitted inhibition curve with a large enough effect; inconclusive means small, poorly fitted or top-dose-only effect, or effect the other way; inactive means flat fitted curve, though single readings scatter. Potencies of inconclusive entries are doubtful fits and often do not repeat.
# Target: Cruzipain (Trypanosoma cruzi) (UniProt P25779)
# Assay: qHTS Assay for Promiscuous and Specific Inhibitors of Cruzain (without detergent); further: nearly all actives have a fitted effect of over 40% in size;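 on max response, negative = inhibition: plate controls were enzyme without inhibitor for no effect and buffer without enzyme for full effect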
# Details: purified cruzain, Z-FR-AMC fluorescence, no detergent
# How it was run: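 Detergent-free condition (0.00005% Triton X-100) in acetate buffer pH 5.5 with DTT. 1.5 nM enzyme and compound were pre-mixed 15 min, then 2 uM Z-FR-AMC substrate added; reaction progress from fluorescence change between first and third reads (60 s).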
# Potency means the concentration at half of the fitted maximal effect; tags describe the fitted curve by direction and shape.
# Sequence of UniProt P25779 (P25779 whole entry, looked up): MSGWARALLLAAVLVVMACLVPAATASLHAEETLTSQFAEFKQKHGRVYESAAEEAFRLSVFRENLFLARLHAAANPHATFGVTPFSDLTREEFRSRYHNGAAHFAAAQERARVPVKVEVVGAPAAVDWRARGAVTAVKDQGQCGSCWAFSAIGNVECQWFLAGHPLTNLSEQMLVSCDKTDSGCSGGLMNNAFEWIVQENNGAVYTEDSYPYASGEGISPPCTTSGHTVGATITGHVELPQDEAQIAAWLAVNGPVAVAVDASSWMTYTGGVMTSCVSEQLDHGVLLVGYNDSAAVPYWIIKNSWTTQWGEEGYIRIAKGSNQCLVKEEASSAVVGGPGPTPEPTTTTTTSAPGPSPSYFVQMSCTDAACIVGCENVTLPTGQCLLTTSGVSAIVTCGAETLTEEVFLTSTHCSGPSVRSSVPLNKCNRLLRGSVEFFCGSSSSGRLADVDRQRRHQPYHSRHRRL
Compound,Potency,"max response, negative = inhibition"
COc1ccc2nc(N/C(N)=N/C(=S)Nc3cccc(C)c3)nc(C)c2c1,"inconclusive: 39.8 µM [inhibitor, single point]",–
CCNc1ncc2nc(-c3ccc(Cl)cc3)c(=O)n(-c3ccccc3)c2n1,–,inactive: 13.5%
O=[N+]([O-])c1ccc(CCNc2cccc3ccccc23)c([N+](=O)[O-])c1,active: 25.1 µM,–
Cc1ccc(NC(=O)CN(CCc2ccccc2)S(=O)(=O)c2ccccc2)c(C)c1,–,inactive: 9%
CCc1ccc(-n2nc3ccc(NC(=O)c4cc(Cl)c(OC)c(Cl)c4)cc3n2)cc1,–,inactive: 0.142%
CNc1ncnc2c1ncn2[C@@H]1O[C@H](CO)[C@H](O)[C@H]1O,–,inactive: 6.68%
Cc1cc(O)c(NC(=O)c2ccc(Br)o2)cc1C,"inconclusive: 39.8 µM [inhibitor, single point]",–
COC(=O)c1sc(-c2ccccc2)cc1NC(=O)c1ccc(OC)cc1,"inconclusive: 39.8 µM [inhibitor, single point]",–
COCCNC(=O)c1cc2c(-c3ccc(Cl)cc3)nn(C)c2s1,"inconclusive: 39.8 µM [activator, single point]",–
C[C@H]1[C@@H](O)[C@@H](C)/C=C\C=CCC\C=C/C=C\C=C/C=C[C@@H](O[C@H]2O[C@@H](C)[C@@H](O)[C@@H](N)[C@@H]2O)C[C@@H]2O[C@@](O)(C[C@@H](O)[C@H]2C(=O)O)C[C@@H](O)[C@@H](O)CC[C@@H](O)C[C@@H](O)C[C@@H](O)CC(=O)O[C@H]1C,"inconclusive: 7.94 µM [activator, full curve]",–
O=[N+]([O-])c1ccc(/C=N/Nc2ccc3ccccc3c2)o1,"inconclusive: 39.8 µM [inhibitor, single point]",–
O=C(Nc1nnc(C2CC2)s1)C1CC(=O)N(c2ccc3c(c2)OCCO3)C1 (stereo unspecified),–,inactive: -9.02%
CC(CC(O)C1OC1(C)C)C1CCC2(C)C3=CCC4C(C)(C)C(=O)CCC4(C)C3CC[C@@]12C (stereo partly specified),"inconclusive: 25.1 µM [activator, single point]",–
CC1=NOC(=O)/C1=C\c1ccc(-c2ccc(Cl)cc2Cl)o1,"inconclusive: 31.6 µM [activator, single point]",–
Cc1ccc2cc(C#N)c(SCC(=O)NCc3ccco3)nc2c1,"inconclusive: 39.8 µM [inhibitor, single point]",–
Cc1nc(NC2=NCN(CCCN3CCOCC3)CN2)nc2c(C)cccc12,active: 25.1 µM,–
Cc1cc2cc(CNC(=O)c3cc4ccccc4o3)ccc2n1C,active: 25.1 µM,–
Cc1ccc2onc(CC(=O)N3CCN(c4ccc(Cl)cc4)CC3)c2c1,–,inactive: 7.92%
CCN(c1ccc(Cl)cc1)S(=O)(=O)c1nnc(NC(=O)c2ccco2)s1,–,inactive: 3.14%
NNc1nc(Nc2ccccc2)nc(N2CCCCC2)n1,active: 12.6 µM,–
C=CCc1ccc(OCC(O)COc2ccc(CC=C)cc2OC)c(OC)c1,"inconclusive: 39.8 µM [activator, single point]",–
Cc1ccc(NC(=S)NCCC(c2ccccc2)c2ccccc2)c(C)c1,"inconclusive: 31.6 µM [inhibitor, single point]",–

Compound,Potency,"max response, negative = inhibition"
CCCC1CCC(c2ccc(C(N)=O)cc2)CC1 (stereo unspecified),"inconclusive: 31.6 µM [inhibitor, single point]",–
Cc1c(C(=O)Nc2ccc3oc(-c4cccnc4)nc3c2)oc2ccccc12,"inconclusive: 12.6 µM [activator, partial curve]",–
CN(C)c1oc(/C=C/c2ccccc2)nc1C#N,"inconclusive: 39.8 µM [inhibitor, single point]",–
CCOC(=O)c1c(-c2cccc([N+](=O)[O-])c2)csc1NC(=O)CCCOc1ccccc1OC,–,inactive: -9.73%
COc1ccc(C2C(C#N)=C(N)Oc3n[nH]c(-c4ccccn4)c32)c(OC)c1OC (stereo unspecified),–,inactive: 7.78%
C[C@@]12C=Cc3occc3C1CC[C@@]13C[C@@H](CCC12)[C@@](O)(CO)C3 (stereo partly specified),–,inactive: -1.15%
CC(C)Cn1c(=O)c(C(=O)Nc2ccccc2S(N)(=O)=O)c(O)c2ccccc21,"inconclusive: 31.6 µM [inhibitor, single point]",–
CCOC(=O)c1cc2c(=O)n3ccccc3nc2n(CCCOC)c1=NC(=O)c1c(-c2ccccc2Cl)noc1C,–,inactive: -4.12%
CCOC(=O)N(CC)c1ccc(C(O)(C(=O)OCC)C(F)(F)F)cc1 (stereo unspecified),"inconclusive: 31.6 µM [activator, single point]",–
CCC(Cc1ccccc1)NC(=O)CN(C)S(=O)(=O)c1ccc2c(c1)c(=O)n(C)c(=O)n2C (stereo unspecified),"inconclusive: 39.8 µM [activator, single point]",–
CCC(=O)N1CCc2cc(Br)cc(S(=O)(=O)CCC(=O)N(C)c3cccc(C)c3)c21,–,inactive: 8.52%
CCOc1ccc(NC(=O)CC2C(=O)N(c3ccc(F)cc3)C(=O)N2CCc2sccc2C)cc1 (stereo unspecified),–,inactive: 1.08%
C/C(=N/Nc1nc(C)cc(=O)[nH]1)C(=O)O,–,inactive: 8.93%
COc1ccc(C2C(=O)N(C3CCC(C)CC3)CC(=O)N2C2CCCCC2)cc1OC (stereo unspecified),–,inactive: 2.26%
N#Cc1c(NCCCO)nc(-c2ccccc2)c2c1CCCC2,"inconclusive: 31.6 µM [activator, single point]",–
O=[N+]([O-])c1ccc(N2CCN(S(=O)(=O)c3ccc(Cl)cc3)CC2)cc1NCc1cccnc1,"inconclusive: 25.1 µM [inhibitor, single point]",–
O=c1c2ccccc2nnn1CSc1nnc(Nc2ccccc2)s1,–,inactive: -6.48%
COc1ccc(NC(=O)Cn2nc(SC)c(S(=O)(=O)c3ccc(C)cc3)c2N)cc1OC,"inconclusive: 39.8 µM [activator, single point]",–
COCCN(Cc1ccco1)C(=O)c1cc2c(Cl)nc3ccc(C)cc3c2s1,–,inactive: 10.5%
CCn1ncc(/C=N\NC(=O)c2cc(-c3ccc(C)cc3C)nc3ccccc23)c1C,"inconclusive: 39.8 µM [activator, single point]",–
C[C@H]1CC[C@H]2C(=O)N3[C@H](c4cccc(N5CCCC5=O)c4)[C@@H](C)CC[C@H]3C(=O)N2[C@@H]1c1cccc(N2CCCC2=O)c1,"inconclusive: 39.8 µM [activator, single point]",–
Clc1ccc(/C=C/c2nc3ccccc3[nH]2)c(Cl)c1,"inconclusive: 39.8 µM [inhibitor, single point]",–

Compound,Potency,"max response, negative = inhibition"
O=C(Nc1ccc2oc(-c3ccc4ccccc4c3)nc2c1)c1cc(Cl)ccc1Cl,active: 5.01 µM,–
CC(=O)c1c(C)n(-c2ccc(C)cc2)c2ccc(OC(=O)COc3ccccc3)cc12,–,inactive: 13.2%
O=C1C=CC[C@@H]2[C@H]3CCCN4CCC[C@@H](CN12)[C@@H]34,–,inactive: -16.8%
Clc1cccc(-n2ncc3c(NCCCN4CCOCC4)ncnc32)c1,–,inactive: -23.8%
COc1ccc(/C=C2\SC(=S)N(CC(=O)Nc3nnc(C)s3)C2=O)cc1,active: 15.8 µM,–
COc1cc(-c2noc(C3CCCN(S(=O)(=O)c4cccc(Cl)c4)C3)n2)cc(OC)c1OC (stereo unspecified),"inconclusive: 39.8 µM [activator, single point]",–
O=C(O)c1ccc(CSc2nc(-c3ccc(Cl)cc3)cc(C(F)(F)F)n2)cc1,"inconclusive: 39.8 µM [inhibitor, single point]",–
Oc1c(Br)c(Br)c(Br)c(Br)c1Br,"inconclusive: 39.8 µM [inhibitor, single point]",–
COc1cccc(-c2nc3c(C#N)c[nH]n3c2NC2CCC(C)CC2)c1 (stereo unspecified),"inconclusive: 31.6 µM [activator, single point]",–
CCc1ccc(C2C(C#N)=C(N)SC(N)=C2C#N)s1,active: 15.8 µM,–
Cc1cccc(Nc2nc3c(S(=O)(=O)c4ccc(Br)cc4)nnn3c3ccsc23)c1C,–,inactive: 0.603%
COc1cccc(N=c2oc3ccc(OC)cc3cc2-c2nc3ccccc3[nH]2)c1,"inconclusive: 15.8 µM [inhibitor, partial curve]",–
CCOC(=O)C1CCN(C(=O)Cn2ncc3c4ccccc4n(Cc4ccccc4)c3c2=O)CC1,"inconclusive: 31.6 µM [activator, single point]",–
COc1ccc(/C=C2\C(=O)NC(=S)N2C(=O)c2ccc(C)cc2)cc1,"inconclusive: 39.8 µM [inhibitor, single point]",–
Cc1ccc(N2C(=O)CS(=O)(=O)C23C(=O)N(Cc2ccc(Cl)cc2)c2ccccc23)cc1C (stereo unspecified),active: 12.6 µM,–
C[C@H]1[C@H](C)OC(=O)C[C@H](O)C[C@H](O)C[C@H](O)CC[C@H](O)[C@H](O)CC(=O)C[C@H](O)[C@H](C(=O)O)[C@H](O)C[C@H](O[C@@H]2O[C@@H](C)[C@H](O)[C@@H](N)[C@@H]2O)C=CC=CC=CC=CCCC=CC=C[C@@](C)(O)[C@H]1O,–,inactive: 13.4%
COc1ccc(C(=O)N(c2ccc(C)cc2)S(=O)(=O)c2ccc(C)cc2)cc1,"inconclusive: 15.8 µM [inhibitor, single point]",–
Cc1ccc(Cc2nc3ccccc3nc2SCC(=O)NCc2ccccc2Cl)cc1,–,inactive: -18.5%
CCc1cccc(CC)c1NC(=O)Cn1nnc2sc3c(c2c1=O)CCCC3,–,inactive: 14%
Cc1ccc(-c2nnn(CC(=O)N(c3ccccc3)C(C(=O)NC3CCCC3)c3ccco3)n2)o1 (stereo unspecified),active: 10 µM,–
O=C(COc1ccccc1Cl)N(Cc1cccc(F)c1)C1CCS(=O)(=O)C1 (stereo unspecified),–,inactive: 2.98%
CC/C(=N/Nc1ccc(Cl)cc1)c1cnnc(SC)n1,"inconclusive: 31.6 µM [inhibitor, single point]",–
